Test results: PubChem BioAssay AID488969 (Vanderbilt High Throughput Screening Facility, 2010)
Whole data set: some 110,000 compounds, median “z-score” near -0.1, cut for the highest 2% near 2. Some of the results follow. Active and inactive are the calls of the source.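 How the source made its calls: active means z-score in the third read window above 3 or below -3; inactive means the rest.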

What follows are compounds tested against Metabotropic glutamate receptor 8 (Rattus norvegicus) (UniProt P70579) (assay: mGluR8 Gi/Go-coupled signaling modulation – cell-based, rat, thallium flux, HTS, primary screen (AID 488969)). Conditions: HEK293 rat mGluR8, GIRK (G protein-gated inwardly rectifying potassium channel) thallium flux, FluoZin2; at 10 µM; stronger effect = higher value.
Sequence of UniProt P70579 (P70579 whole entry, looked up): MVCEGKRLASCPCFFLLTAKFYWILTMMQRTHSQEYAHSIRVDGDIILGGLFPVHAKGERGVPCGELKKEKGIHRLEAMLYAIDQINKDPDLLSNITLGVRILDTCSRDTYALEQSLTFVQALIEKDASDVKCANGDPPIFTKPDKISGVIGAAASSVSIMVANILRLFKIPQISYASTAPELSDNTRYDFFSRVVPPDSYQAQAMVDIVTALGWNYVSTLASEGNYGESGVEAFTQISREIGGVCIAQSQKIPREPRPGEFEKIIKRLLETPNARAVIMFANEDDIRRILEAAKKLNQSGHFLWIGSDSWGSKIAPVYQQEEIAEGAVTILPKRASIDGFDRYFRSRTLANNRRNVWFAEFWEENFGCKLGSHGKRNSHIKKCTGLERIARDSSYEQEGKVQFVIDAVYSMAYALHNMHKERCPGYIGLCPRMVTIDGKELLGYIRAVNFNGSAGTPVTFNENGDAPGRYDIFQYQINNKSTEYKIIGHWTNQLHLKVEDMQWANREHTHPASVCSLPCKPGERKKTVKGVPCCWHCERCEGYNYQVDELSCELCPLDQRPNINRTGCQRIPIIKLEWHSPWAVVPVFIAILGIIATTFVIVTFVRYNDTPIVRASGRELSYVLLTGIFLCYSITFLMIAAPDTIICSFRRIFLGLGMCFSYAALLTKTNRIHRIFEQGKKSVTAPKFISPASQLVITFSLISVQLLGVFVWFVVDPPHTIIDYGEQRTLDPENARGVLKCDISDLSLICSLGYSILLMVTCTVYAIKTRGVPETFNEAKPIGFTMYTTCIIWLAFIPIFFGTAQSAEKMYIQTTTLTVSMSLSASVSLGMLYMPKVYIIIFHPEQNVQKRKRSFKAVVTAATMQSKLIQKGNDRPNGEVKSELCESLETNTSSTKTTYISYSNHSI

Compound	z-score
O=C(Cn1cc(C(=O)c2ccccc2F)c2ccccc21)NCc1ccco1	-0.941
COC(=O)c1ccc(-n2c(C)nc3ccccc3c2=O)cc1	-0.262
CC(C(=O)Nc1ccc(Cl)cc1Cl)N1CC=C(c2ccccc2)CC1 (stereo not drawn)	0.37
Cc1ccc(Cn2cc(C=O)c(-c3ccc(C)cc3)n2)cc1	-0.11
Cc1ccc(Cc2c(C)nc3nc(SCC(=O)N4CCC5(CC4)OCCO5)nn3c2C)cc1	-0.0184
CCN(CC)C1=NC(=[N+](CC)CC)c2ccccc21	0.0677
CN(C)C(=O)Oc1ccc(OCc2cccc[n+]2C)cc1	-0.0662
CN(C)c1nc(-c2ccccc2)[n+](C)s1	0.0804
CCN(CC)c1ccc(N=Cc2c(O)n(CCc3ccc(OC)c(OC)c3)c(=O)[nH]c2=O)cc1	-0.148
Nc1ccc(N2CCN(Cc3ccccc3Cl)CC2)c(Cl)c1	0.0509
Cc1nn(Cc2ccccc2)c(C)c1C(=O)OCC(=O)NC1CCS(=O)(=O)C1 (stereo not drawn)	-0.151
CCOP(=O)(OCC)C(NC(=O)C(Cl)Cl)C(Cl)(Cl)Cl (stereo not drawn)	-0.137
CC(=C1C(=O)c2ccccc2C1=O)N1CCN(CCN=Cc2c(O)n(C)c(=O)n(C)c2=O)CC1	0.436
CCOc1ccc(CC2C(=O)NC(=O)N(c3ccc(CC)cc3)C2=O)cc1 (stereo not drawn)	-0.531
O=C(CNC(=O)OCc1ccccc1)Nc1ccc(Br)cc1C(=O)c1ccccc1Cl	-0.196
CC(C(=O)c1cn(C)c2ccccc12)c1ccccc1 (stereo not drawn)	-0.202
CN1CCCC1C(O)(c1ccccc1)c1ccccc1 (stereo not drawn)	-0.0177
CCCCN1C(=O)/C(=C/c2ccc(N3CCCCCC3)cc2)C(=O)NC1=S	-0.0524
CCC(=O)N1c2ccc(S(=O)(=O)CCC(=O)N3CCC4(CC3)OCCO4)cc2CC1C (stereo not drawn)	0.00521
COc1ccc(Br)cc1CN1CCN(C(=O)Cc2ccccc2)CC1	0.412
N#Cc1ccccc1Cn1cc(C(=O)c2cccs2)c2ccccc21	0.24
CCCCCCOc1ccc(CN2CCN(CC)CC2)cc1	0.69

Compound	z-score
O=C(COc1ccccc1)Nc1ccc(Cl)cc1C(=O)c1ccccc1	-0.359
Cc1nc2cc(-c3cccc(F)c3)nn2c(C)c1CCC(=O)N1CCC2(CC1)OCCO2	0.608
CCN(CC)C(=O)c1ccc(N2C(=O)C3CC=C(Cl)CC3C2=O)cc1 (stereo not drawn)	-0.188
CCCCn1c(C)c(C(=O)OCC)c2c(CN3CCOCC3)c(O)ccc21	active: 4.12
O=c1cccc2n1CC1CC2CN(S(=O)(=O)c2ccccc2)C1 (stereo not drawn)	0.151
Nc1c(C(=O)OCC2CCCO2)c2nc3ccccc3nc2n1Cc1cccs1 (stereo not drawn)	-0.55
COc1ccc(CCn2c(O)c(C=NCc3cccnc3)c(=O)[nH]c2=O)cc1OC	0.158
CN1CCN(S(=O)(=O)c2cnc(Cl)c(Br)c2)CC1	-1.22
Cc1noc(C)c1C(=O)N1CCC2(CC1)OCCO2	-0.294
CCC(COC(=O)NC)NC(=O)Oc1ccccc1 (stereo not drawn)	-0.4
O=P(c1ccccc1)(c1nc2ccccc2s1)N1CCOCC1 (stereo not drawn)	0.207
Nc1ccnn1C1CCNCC1	0.0563
COc1cc(/C=C/C(=O)c2c(O)n(CCc3ccccc3)c(=O)[nH]c2=O)ccc1O	0.237
CC(NCc1ccccc1Cl)C(O)c1ccccc1 (stereo not drawn)	-0.196
O=C(Cn1c2c(c(-c3ccccc3Cl)cc1=O)CCC2)N1CCC2(CC1)OCCO2	-0.0282
CC(=O)OC1N=C(c2ccc(Cl)cc2)c2cc(Br)ccc2NC1=O (stereo not drawn)	-0.187
CSCc1nnc2n1-c1ccc(Cl)cc1C(c1ccccc1)=NC2	-0.724
O=C(Nc1ccccc1)Oc1ccccc1	0.0771
CCCCc1nc2ccccc2c(=O)n1-c1ccccc1O	-0.0881
Cn1c(=O)cc(OCC(=O)N2CCN(Cc3ccc4c(c3)OCO4)CC2)c2ccccc21	-0.244
c1ccc(C2=NP(N3CCOCC3)(N3CCOCC3)=NC(N3CCOCC3)=N2)cc1	-0.516
CC(C)C12CN3CCN(CC(C3)C1O)C2 (stereo not drawn)	-0.631

Compound	z-score
CN1C(=O)/C(=C/c2cccn2-c2ccc3ccccc3c2)C(=O)NC1=S	0.0101
CC[N+](CC)(CC)CCCCCCCCCC[N+](CC)(CC)CC	0.161
CCOC(=O)C1=C(N)Oc2cc(C)oc(=O)c2C12C(=O)N1c3c(cccc32)C(C)=CC1(C)C (stereo not drawn)	-0.154
O=P(C(=Nc1ccc(Cl)cc1)N1CCOCC1)(N1CCOCC1)N1CCOCC1	0.307
O=C1NC(=O)N(Cc2ccco2)C(=O)/C1=C\c1cccn1CCOc1ccc(Cl)cc1	-0.201
O=C(c1ccccc1)c1cn(CC(=O)N2CCCC2)c2ccccc12	-0.206
CC1=C(/C=C/c2ccccc2)CCN(C)C1	-0.494
O=C1/C(=C/c2cc3c(cc2Cl)OCO3)N2CCC1CC2	-0.321
Cc1nc2cc(C(F)(F)F)ccc2n1C1CCN(Cc2nnnn2CCc2ccccc2)CC1	0.0449
CC(=O)N1N=C2C3CCN(CC3)C2C1c1ccccc1 (stereo not drawn)	-0.042
CCC1(CC)C(=N)N(C)C(=O)NC1=O	-0.128
CSCCC(N=Cc1c(O)n(-c2ccc(F)cc2)c(=O)[nH]c1=O)C(=O)OC(C)(C)C (stereo not drawn)	1.37
O=C(Nc1cccc2ccccc12)c1nn(C23CC4CC(CC(C4)C2)C3)cc1Br	0.155
O=[N+]([O-])c1cc(S(=O)(=O)c2ccc(O)c([N+](=O)[O-])c2)ccc1O	-0.235
CC(C)c1ccc(-n2c(O)c(/C=N/NC(=O)c3ccncc3)c(=O)[nH]c2=O)cc1	-0.321
CC12CC(c3ccccc3O1)C(C(=O)OCc1ccccc1)C(=O)N2 (stereo not drawn)	0.121
O=C(CN1CCCC1=O)Nc1ccccc1	-0.327
C=CCn1c(O)c(C(CC)=Nc2cc(OC)ccc2OC)c(=O)[nH]c1=O	-0.933
CC(C)c1ccc(N2C(=O)NC(=O)/C(=C\c3cnc(-c4ccccc4)nc3)C2=O)cc1	-0.00736
Cc1nn(Cc2ccccc2Cl)c(Cl)c1C(=O)OCC(=O)NC(=O)NC1CCCCC1	-0.318
CN(C)Cc1ccccc1OC(=O)N(C)C	0.0556
CCOP(=O)(OCC)C(NC(=O)c1ccc(Cl)cc1)=C(Cl)Cl	-0.0435

Compound	z-score
COc1ccc(C=C2C(=O)N(C)C(=O)N(C)C2=O)cc1CSc1ccccn1	-0.462
CNCC(O)c1cccc(OC(=O)c2ccccc2C)c1 (stereo not drawn)	2.34
CCC(=O)c1cn(Cc2ccc(C#N)cc2)c2ccccc12	-0.807
CC(=O)OC1(c2ccccc2)CCN(C)C(C)C1C (stereo not drawn)	0.365
CC(c1ccccc1F)n1cc(C(=O)Nc2ccc3nc[nH]c3c2)nn1 (stereo not drawn)	-1.48
CCC(=NCCCN(CC)CC)c1c(O)n(C2CCCCC2)c(=O)[nH]c1=O	-0.25
CCCCc1nc2ccccc2c(=O)n1-c1ccccc1[N+](=O)[O-]	-0.394
Cc1ccc(N2C(=O)NC(=O)C3(Cc4ccccc4N4CCN(c5ccccc5)CC43)C2=O)cc1 (stereo not drawn)	0.145
CN1C(=O)N(C)C(=O)C2(Cc3c(ccc4ccccc34)N(C)C2)C1=O	0.249
Cc1ccc(N2C(=O)NC(=O)C(CCc3ccncc3)(Cc3cccc(Cl)c3Cl)C2=O)cc1 (stereo not drawn)	-0.709
C=CCn1c(O)c(C(C)=Nc2ccc(N(CC)CC)cc2)c(=O)[nH]c1=O	-0.556
CCCC1C(C#N)=C(N)Oc2c1c(=O)oc1ccccc21 (stereo not drawn)	-0.98
Cc1ccccc1C1=NCC(=S)Nc2ccc(Cl)cc21	active: 4.39
CN1CCc2c(C#N)c(Cl)nc(Cl)c2C1	0.252
Cc1cccc(NC(N)=S)c1	0.00399
C#CCNc1ccncc1S(=O)(=O)NC(=O)NC(C)C	0.02
CN1CCC(N(C)Cc2cccnc2)CC1	-0.166
COC(=O)c1c(C)n(Cc2ccc3c(c2)OCO3)c2ccc(O)cc12	-0.95
O=C(CN1CCN(CCO)CC1)Nc1ccc(Cl)cc1C(=O)c1ccccc1	-0.0657
Cc1ccc2c(c1)CC1(CN2C)C(=O)NC(=O)N(C(C)C)C1=O (stereo not drawn)	-0.186
CCOC(=O)C1=C(N)Oc2cc(C)oc(=O)c2C12C(=O)N1c3c(cc(OC)cc32)C(C)=CC1(C)C (stereo not drawn)	1.07
OCC12CO[C@@H]3c4ccccc4[C@H](OC1)N32 (stereo partly drawn)	-0.0926

Compound	z-score
CCOC(=O)C1=C(C)OC(N)=C(C#N)C12C(=O)Nc1ccc(C)cc12 (stereo not drawn)	-0.252
CCCCCCOc1ccc(CN2CCN(C)CC2)cc1	0.71
CCCCn1c(O)c(C(C)=NCCc2ccccc2)c(=O)[nH]c1=O	-0.429
O=C(Cc1ccccc1)Oc1ccc(N2C(=O)CCC2=O)cc1	-0.0169
CCc1ccccc1NC(=O)CSc1nnc([C@@H](N)Cc2c[nH]c3ccccc23)o1	-0.13
CCOC(=O)C1=C(N)Oc2ccccc2C12C(=O)N(CC(=O)OC)C(CC(=O)OC)=C2C(=O)OC (stereo not drawn)	-0.147
Cc1cccn2c(=O)c3cc(C(=O)N4CCC5(CC4)OCCO5)n(C)c3nc12	-0.378
Cc1ccc(C(=O)n2cc(CCN3CCS(=O)(=O)CC3)c3ccccc32)cc1	0.0725
Cc1ccc(CC2C(=O)N(C)C(=O)N(C)C2=O)s1	0.26
O=C(C1CCC(=O)N1C1CCCC1)N1CCC2(CC1)OCCO2 (stereo not drawn)	-0.00875
COc1ccc(OCC(=O)N2CCN(C3CCC(c4ccccc4)CC3)CC2)cc1 (stereo not drawn)	0.14
O=c1c(C=NCCN2CCNCC2)c(O)n(C2CCCCC2)c(=O)n1C1CCCCC1	2.42
O=C(N/N=C/c1c(O)n(-c2ccccc2)c(=O)[nH]c1=O)c1ccncc1	-0.0892
CCOC(=O)c1c(-n2c(C)cc(/C=C3/C(=O)NC(=O)N(CC)C3=O)c2C)sc2c1CCCC2	-1.61
O=C(CN1CCCCC1)NCC(=O)Nc1ccc(Br)cc1C(=O)c1ccccc1	-0.631
CCn1c(O)c(C(c2ccccn2)c2c(O)n(CC)c(=S)[nH]c2=O)c(=O)[nH]c1=S	-0.0345
O=C(NC(c1ccc(Cl)cc1)P(=O)(Oc1ccccc1)Oc1ccccc1)OCc1ccccc1 (stereo not drawn)	-0.232
CN(C)C(=O)Oc1cccc2c(OC(=O)N(C)C)cccc12	-0.255
O=C(Cn1cnc2sc3c(c2c1=O)CCCC3)NCCC(=O)N1CCC2(CC1)OCCO2	1.33
C=CCn1c(O)c(C(CC)=NCCC2=CCCCC2)c(=O)[nH]c1=O	-1.62
